Measurements reported in the supplement of paper PMC9151546.
Repeats are few or missing, and single values can be far off.

What was measured:
CHO-K1 [1] = test: relative survival (nuclei to bead ratio vs DMSO control) (% of vehicle control); higher = more surviving cells
Experimental: (§1)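 Flow-cytometric in vitro micronucleus assay (Litron MicroFlow) in CHO-K1 cells in 96-well plates, 19 concentrations (4.5-200 µM, n=1 per concentration). Without S9, cells were exposed for 24 h and sampled at 48 h. With Aroclor 1254-induced rat liver S9, cells were exposed for 3-4 h and sampled at 27-28 h. Read-outs are %MN and %hypodiploid nuclei relative to nucleated events, and relative survival as the nuclei-to-bead ratio versus the 1% DMSO vehicle control (x100).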

CHO-K1 [2] = test: hypodiploid nuclei frequency (% of nucleated events); higher = more hypodiploid events (aneugenic)
Experimental: as §1

CHO-K1 [3] = test: micronucleus frequency (% of nucleated events); higher = more micronuclei (genotoxic)
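For hypodiploid nuclei frequency (% of nucleated events) in this document: hypodiploid nuclei gated on a flow cytometer with 488 nm excitation after SYTOX Green staining, cultures at 37 °C, positive controls vinblastine without S9 and cyclophosphamide with S9.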
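For micronucleus frequency (% of nucleated events) in this document: cells lysed with nuclei stained by SYTOX Green, then micronucleus-gated events counted against nucleated events by flow cytometry with 488 nm excitation.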
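For relative survival (nuclei to bead ratio vs DMSO control) in this document: Lysed-cell nuclei stained with SYTOX Green and counted against counting beads by flow cytometry at 488 nm excitation, with vinblastine (no S9) and cyclophosphamide (plus S9) as positive controls.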

CCCCC(CC)COC(=O)CCCCCCCCC(=O)OCC(CC)CCCC (stereo unspecified) [Bis(2-ethylhexyl) decanedioate]
Conditions | hypodiploid nuclei frequency, CHO-K1 [2] [%] | micronucleus frequency, CHO-K1 [3] [%] | relative survival, CHO-K1 [1]
concentration: 4.5 (µM), S9 metabolic activation: with S9, exposure time: 3-4 hours | 0.2 | 1.72 | 82.3
concentration: 4.5 (µM), S9 metabolic activation: without S9, exposure time: 24 hours | 0.58 | 2.82 | 91.2
concentration: 5.63 (µM), S9 metabolic activation: with S9, exposure time: 3-4 hours | 0.26 | 1.74 | 112
concentration: 5.63 (µM), S9 metabolic activation: without S9, exposure time: 24 hours | 0.66 | 2.92 | 88.8
concentration: 7.04 (µM), S9 metabolic activation: with S9, exposure time: 3-4 hours | 0.42 | 1.3 | 79.6
concentration: 7.04 (µM), S9 metabolic activation: without S9, exposure time: 24 hours | 0.44 | 3.56 | 102
concentration: 8.8 (µM), S9 metabolic activation: with S9, exposure time: 3-4 hours | 0.26 | 1.28 | 93
concentration: 8.8 (µM), S9 metabolic activation: without S9, exposure time: 24 hours | 0.7 | 2.86 | 99.2
concentration: 11 (µM), S9 metabolic activation: with S9, exposure time: 3-4 hours | 0.22 | 1.58 | 103
concentration: 11 (µM), S9 metabolic activation: without S9, exposure time: 24 hours | 0.72 | 2.26 | 108
concentration: 13.7 (µM), S9 metabolic activation: with S9, exposure time: 3-4 hours | 0.46 | 1.82 | 87.4
concentration: 13.7 (µM), S9 metabolic activation: without S9, exposure time: 24 hours | 0.62 | 1.76 | 103
concentration: 17.2 (µM), S9 metabolic activation: with S9, exposure time: 3-4 hours | 0.24 | 1.84 | 79.8
concentration: 17.2 (µM), S9 metabolic activation: without S9, exposure time: 24 hours | 0.86 | 2.74 | 125
concentration: 21.5 (µM), S9 metabolic activation: with S9, exposure time: 3-4 hours | 0.26 | 1.64 | 111
concentration: 21.5 (µM), S9 metabolic activation: without S9, exposure time: 24 hours | 0.54 | 2.24 | 123
concentration: 26.8 (µM), S9 metabolic activation: with S9, exposure time: 3-4 hours | 0.32 | 2.28 | 116
concentration: 26.8 (µM), S9 metabolic activation: without S9, exposure time: 24 hours | 0.44 | 2.34 | 112
concentration: 33.6 (µM), S9 metabolic activation: with S9, exposure time: 3-4 hours | 0.46 | 2.5 | 113
concentration: 33.6 (µM), S9 metabolic activation: without S9, exposure time: 24 hours | 0.9 | 1.98 | 115
concentration: 41.9 (µM), S9 metabolic activation: with S9, exposure time: 3-4 hours | 0.36 | 1.86 | 107
concentration: 41.9 (µM), S9 metabolic activation: without S9, exposure time: 24 hours | 0.62 | 2.46 | 98.4
concentration: 52.4 (µM), S9 metabolic activation: with S9, exposure time: 3-4 hours | 0.24 | 1.96 | 107
concentration: 52.4 (µM), S9 metabolic activation: without S9, exposure time: 24 hours | 0.48 | 1.96 | 98.4
concentration: 65.5 (µM), S9 metabolic activation: with S9, exposure time: 3-4 hours | 0.36 | 1.7 | 94.1
concentration: 65.5 (µM), S9 metabolic activation: without S9, exposure time: 24 hours | 0.84 | 2.8 | 124
concentration: 81.9 (µM), S9 metabolic activation: with S9, exposure time: 3-4 hours | 0.3 | 2.08 | 85.6
concentration: 81.9 (µM), S9 metabolic activation: without S9, exposure time: 24 hours | 0.76 | 2.14 | 108
concentration: 102 (µM), S9 metabolic activation: with S9, exposure time: 3-4 hours | 0.3 | 2.64 | 99.7
concentration: 102 (µM), S9 metabolic activation: without S9, exposure time: 24 hours | 1.16 | 2.42 | 101
concentration: 128 (µM), S9 metabolic activation: with S9, exposure time: 3-4 hours | 0.38 | 1.66 | 85.6
concentration: 128 (µM), S9 metabolic activation: without S9, exposure time: 24 hours | 0.92 | 2.36 | 90.5
concentration: 160 (µM), S9 metabolic activation: with S9, exposure time: 3-4 hours | 0.36 | 1.54 | 76.4
concentration: 160 (µM), S9 metabolic activation: without S9, exposure time: 24 hours | 0.92 | 2.62 | 117
concentration: 200 (µM), S9 metabolic activation: with S9, exposure time: 3-4 hours | 0.16 | 1.52 | 88.4
concentration: 200 (µM), S9 metabolic activation: without S9, exposure time: 24 hours | 1.2 | 2.9 | 98.8

CCCCOC(=O)c1ccccc1C(=O)OCc1ccccc1 [Butyl benzyl phthalate]
Conditions | hypodiploid nuclei frequency, CHO-K1 [2] [%] | micronucleus frequency, CHO-K1 [3] [%] | relative survival, CHO-K1 [1]
concentration: 4.59 (µM), S9 metabolic activation: with S9, exposure time: 3-4 hours | 0.22 | 1.22 | 83.9
concentration: 4.59 (µM), S9 metabolic activation: without S9, exposure time: 24 hours | 0.84 | 1.4 | 102
concentration: 5.74 (µM), S9 metabolic activation: with S9, exposure time: 3-4 hours | 0.22 | 1.82 | 85.6
concentration: 5.74 (µM), S9 metabolic activation: without S9, exposure time: 24 hours | 0.98 | 2.14 | 109
concentration: 7.18 (µM), S9 metabolic activation: with S9, exposure time: 3-4 hours | 0.44 | 2.72 | 82
concentration: 7.18 (µM), S9 metabolic activation: without S9, exposure time: 24 hours | 0.96 | 2.18 | 100
concentration: 8.97 (µM), S9 metabolic activation: with S9, exposure time: 3-4 hours | 0.18 | 1.16 | 83
concentration: 8.97 (µM), S9 metabolic activation: without S9, exposure time: 24 hours | 0.8 | 1.44 | 102
concentration: 11.2 (µM), S9 metabolic activation: with S9, exposure time: 3-4 hours | 0.18 | 1.48 | 83.2
concentration: 11.2 (µM), S9 metabolic activation: without S9, exposure time: 24 hours | 0.74 | 1.56 | 108
concentration: 14 (µM), S9 metabolic activation: with S9, exposure time: 3-4 hours | 0.38 | 1.88 | 71.4
concentration: 14 (µM), S9 metabolic activation: without S9, exposure time: 24 hours | 0.78 | 1.62 | 98.4
concentration: 17.5 (µM), S9 metabolic activation: with S9, exposure time: 3-4 hours | 0.28 | 1.66 | 74.8
concentration: 17.5 (µM), S9 metabolic activation: without S9, exposure time: 24 hours | 0.66 | 1.38 | 79.7
concentration: 21.9 (µM), S9 metabolic activation: with S9, exposure time: 3-4 hours | 0.3 | 2.6 | 85.4
concentration: 21.9 (µM), S9 metabolic activation: without S9, exposure time: 24 hours | 0.76 | 2.1 | 98.4
concentration: 27.4 (µM), S9 metabolic activation: with S9, exposure time: 3-4 hours | 0.3 | 0.94 | 89.2
concentration: 27.4 (µM), S9 metabolic activation: without S9, exposure time: 24 hours | 1.48 | 0.8 | 114
concentration: 34.2 (µM), S9 metabolic activation: with S9, exposure time: 3-4 hours | 0.34 | 0.98 | 78.2
concentration: 34.2 (µM), S9 metabolic activation: without S9, exposure time: 24 hours | 1.16 | 1.28 | 126
concentration: 42.8 (µM), S9 metabolic activation: with S9, exposure time: 3-4 hours | 0.24 | 1.22 | 104
concentration: 42.8 (µM), S9 metabolic activation: without S9, exposure time: 24 hours | 0.98 | 1.12 | 106
concentration: 53.5 (µM), S9 metabolic activation: with S9, exposure time: 3-4 hours | 0.34 | 0.82 | 96.8
concentration: 53.5 (µM), S9 metabolic activation: without S9, exposure time: 24 hours | 0.72 | 1.36 | 103
concentration: 66.8 (µM), S9 metabolic activation: with S9, exposure time: 3-4 hours | 0.48 | 2.1 | 110
concentration: 66.8 (µM), S9 metabolic activation: without S9, exposure time: 24 hours | 0.92 | 2.34 | 102
concentration: 83.6 (µM), S9 metabolic activation: with S9, exposure time: 3-4 hours | 0.24 | 1.02 | 82.6
concentration: 83.6 (µM), S9 metabolic activation: without S9, exposure time: 24 hours | 0.6 | 1.1 | 93.5
concentration: 104 (µM), S9 metabolic activation: with S9, exposure time: 3-4 hours | 0.18 | 1.24 | 95.7
concentration: 104 (µM), S9 metabolic activation: without S9, exposure time: 24 hours | 0.98 | 1.78 | 79.9
concentration: 131 (µM), S9 metabolic activation: with S9, exposure time: 3-4 hours | 0.28 | 1.54 | 100
concentration: 131 (µM), S9 metabolic activation: without S9, exposure time: 24 hours | 0.8 | 0.94 | 75
concentration: 163 (µM), S9 metabolic activation: with S9, exposure time: 3-4 hours | 0.22 | 1.8 | 99.5
concentration: 163 (µM), S9 metabolic activation: without S9, exposure time: 24 hours | 1.12 | 1.4 | 77.4
concentration: 204 (µM), S9 metabolic activation: with S9, exposure time: 3-4 hours | 0.4 | 1.96 | 84.8
concentration: 204 (µM), S9 metabolic activation: without S9, exposure time: 24 hours | 0.96 | 1.82 | 61.1
